# Test results as given in patent US11178870B2 (priority 2017, dated 2021).
# Key:
# Phytophthora infestans = format: in vivo; conditions: Table 7, Test F
# [1] = test system: Colletotrichum orbiculare; conditions: 250 ppm sprayed (2.5 ml/pot) before inoculation; assessed 6 to 10 days after inoculation
# Magnaporthe grisea = format: in vivo; conditions: Table 7, Test A
Compound,"control value, Test F (late blight on tomato) (Phytophthora infestans)","control value, Test H (anthracnose on cucumber) [1]","control value, Test A (blast on rice) (Magnaporthe grisea)"
O=c1c(Cl)cc(-c2ccsc2Br)c(-c2c(F)cccc2F)n1CC(F)F [Compound 347],L (L shows the control value of 50% or less),H (H shows the control value more than 50%),
CCn1c(-c2ccc(OC)cc2Br)c(-n2cc(F)cn2)ccc1=O [Compound 354],L (L shows the control value of 50% or less),H (H shows the control value more than 50%),H (H shows the control value more than 50%)
CCn1c(-c2ccccc2Br)c(-n2cc(F)cn2)cc(Cl)c1=O [Compound 357],L (L shows the control value of 50% or less),H (H shows the control value more than 50%),H (H shows the control value more than 50%)
